The values below come from ChEMBL document CHEMBL4888484, “Replenishing the malaria drug discovery pipeline: Screening and hit evaluation of the MMV Hit Generation Library 1 (HGL1) against asexual blood stage Plasmodium falciparum ,using a nano luciferase reporter read-out” (2022).

Out of some 150,000 compounds screened, about 540 (0.36%) showed an effect of 50% or more. Some of the results follow.

The test system of the assay is Plasmodium falciparum. Description: Primary screen in NF54 nanoGlo assay, in single point, at 2uM, 72h; a lower Z score goes with more inhibition. Type of assay: functional, Erythrocyte. The settings on record: timepoint 72 hour.
`O=C1CCCN1[C@H]1CCCN(Cc2cccc(O)c2)CC1`: the “% Inhibition” value is reported as -7% and the Z score was 0.7.
In the same order, the values of `Cc1noc([C@H]2CN(C(=O)Nc3ccc(Cl)cc3C)CC23CCOCC3)n1` are -5% and 0.87.
Take `O=S1(=O)CC[C@H](Cc2nc(C3CC3)nn2-c2ccccn2)C1`: the “% Inhibition” value is -13% and the Z score is listed as 1.82.
Turning to `O=C(COc1ccccc1Cl)Nc1ccc(-n2cnnn2)cc1`, the “% Inhibition” value is on record as -5% and the Z score worked out at 0.75.
In the case of `COc1ccc(OC)c(N(CC(=O)NCc2ccc3c(c2)OCO3)S(C)(=O)=O)c1`, the “% Inhibition” value is given as -7% and the Z score amounted to 1.01.
For `c1ccc(-c2nnn(Cc3noc(-c4ccco4)n3)n2)cc1`, in that order: 3% and -0.4.
For `CN1CCN(c2ccccc2NC(=O)NCc2ccccc2)CC1`, in that order: 1% and -0.12.
For the compound `O=C(CN1C(=O)CC(Cc2ccc(F)cc2)C1=O)NCC1CCCO1` (stereo not drawn), the “% Inhibition” value amounted to 8% and the Z score is on record as -1.06.
`CCCCS(=O)(=O)N[C@H]1COC[C@@H]1N1CCN(C)CC1`: the “% Inhibition” value is reported as -9% and the Z score was 1.84.
With `CCOC(=O)C1CCN(c2ccc(-c3nc(-c4ccc(C)cc4)no3)cn2)CC1`, the “% Inhibition” value is given as -8% and the Z score is 0.86.
With `CCN(CC)C(=O)c1ccc2c(c1)n(Cc1cccc(OC)c1)c(=O)c1ccnn12`, the “% Inhibition” value is given as -10% and the Z score was determined as 1.53.
In the case of `CC[C@@H]1Oc2ccc(NC(=O)Cc3ccccc3)cc2CN(CCc2ccc(OC)c(OC)c2)C1=O`, the “% Inhibition” value is 3% and the Z score is recorded as -0.47.
For `CN1C(=O)c2ccc(-c3ccc(F)cc3F)cc2O[C@H]2CN(C3CCCC3)C[C@H]21`, in that order: -4% and 0.54.
As for `CN1CCN(S(=O)(=O)c2ccccc2CNc2cnccn2)CC1`, the “% Inhibition” value is recorded as -13% and the Z score came to 1.97.
For `COC(=O)CNC(=O)[C@@H](NC(=O)c1c(F)cccc1F)C(C)C`, the “% Inhibition” value is recorded as -3% and the Z score is recorded as 0.5.
For `O=C(CN1CCCC1)NCC[C@H]1CCCOC1`, in that order: -8% and 1.31.
As to `CN(Cc1cccn1-c1nccs1)C[C@H]1CCCCO1`, the “% Inhibition” value was determined as 1% and the Z score was -0.1.
`COc1ccc2c(=O)c(C(=O)c3ccncc3)cn(CC(=O)Nc3ccc4c(c3)OCCO4)c2c1`: the “% Inhibition” value stood at 5% and the Z score was -0.75.
In the same order, the values of `Cc1ccc(CNc2nnc(-c3ccco3)o2)o1` are -10% and 0.93.
On to `CCn1nccc1C(=O)NC1CCN(c2nnc3ccc(Cl)cn23)CC1`, for which the “% Inhibition” value was 36% and the Z score is -0.94.
Regarding `O=C(c1cc(=O)c(OCc2ccccc2)c[nH]1)N1CCN(c2cccc(C(F)(F)F)c2)CC1`, the “% Inhibition” value came out at 23% and the Z score was -3.04.
For `CCc1ncnc(N2CC[C@H](Cc3nnn[nH]3)C2)c1F`, the “% Inhibition” value is recorded as -13% and the Z score is on record as 1.77.
On to `CS(=O)(=O)N1CCN(C(=O)c2ccc(N3CCC(Cc4ccccc4)CC3)nn2)CC1`, for which the “% Inhibition” value is listed as -12% and the Z score amounted to 2.07.
Turning to `OCC1(CNc2cc(-c3ccccc3)n3ncnc3n2)CCOCC1`, the “% Inhibition” value is given as -8% and the Z score is 0.86.
In the same order, the values of `CNC(=O)[C@@H]1CCCC[C@@H]1C(=O)N1CCCC2(CCOCC2)C1` are -10% and 1.36.
In the same order, the values of `CCn1ccnc1CN(C)Cc1cnc(C(C)C)nc1` are 5% and -1.
In the case of `O=C(COc1ccccc1C(=O)c1cnn(-c2ccccc2)c1)NCc1cccc(Cl)c1`, the “% Inhibition” value was -6% and the Z score was 1.04.
For `Cn1cccc1C(=O)N1CCn2c(nnc2[C@@H]2CCCCN2S(C)(=O)=O)C1`, the “% Inhibition” value was determined as 2% and the Z score was -0.28.
As for `Cn1nc(O)c2c1CN(CC(=O)NCCc1ccc(F)cc1)CC2`, the “% Inhibition” value was -4% and the Z score was found to be 0.53.
For `NC(=O)c1cc(NC(=O)C2(Cc3cccc(F)c3)CCCCC2)c[nH]1`, the “% Inhibition” value was found to be 4% and the Z score was -0.39.
Turning to `COc1ccc2nc(N3C(=O)c4ccccc4C3=O)sc2c1`, the “% Inhibition” value was -8% and the Z score came out at 1.01.
For `COc1c(C(=O)N2CCc3n[nH]c(C(F)F)c3C2)c(C)nn1C`, the “% Inhibition” value is recorded as -3% and the Z score is recorded as 0.36.
In the same order, the values of `CCn1c(=O)c(C)nc2cc(C(=O)Nc3ccccc3C(=O)Nc3ccc4c(c3)OCO4)ccc21` are -6% and 0.68.
`O=C(NC[C@H]1CNCCO1)c1nc2c(s1)CCCC2`: the “% Inhibition” value is recorded as 0% and the Z score came to 0.03.
On to `O=S(=O)(c1c(F)cccc1Br)N1CC[C@@H](O)C1`, for which the “% Inhibition” value is reported as -2% and the Z score was 0.46.
For `CC(C)c1cc(C(=O)N2CCS(=O)(=O)C(C)C2C)on1` (stereo not drawn), the “% Inhibition” value is 0% and the Z score is reported as 0.04.
Consider `CCN1C(=O)c2ccccc2Oc2ccc(C(=O)Nc3ccc(C)cc3C)cc21`, for which the “% Inhibition” value is recorded as -14% and the Z score is recorded as 1.99.
For `C[C@H](NC(=O)c1cnn(CC(=O)NC2CCCCC2)c1)C(C)(C)C`, the “% Inhibition” value was -20% and the Z score was 2.85.
Take `CN(C[C@H]1CCCN(C(=O)c2ccnc3c2ncn3C)C1)S(C)(=O)=O`: the “% Inhibition” value was 2% and the Z score is recorded as -0.37.
For the compound `FC1(F)CCN(c2nnc(C3CCC3)o2)CC1`, the “% Inhibition” value came to 7% and the Z score is recorded as -0.91.
In the case of `CN1C[C@@H](NC(=O)c2csc(CCc3ccccc3)n2)CCC1=O`, the “% Inhibition” value is 2% and the Z score is listed as -0.31.
Take `O=C(CN1CCC[C@H]1C1CCCC1)NCC1CC1`: the “% Inhibition” value is listed as -4% and the Z score came to 0.55.
`CCOC(=O)c1cc(-c2cccc(NC(=O)COc3ccccc3)c2)n(-c2ccccc2OC)n1`: the “% Inhibition” value is -6% and the Z score is 0.63.
In the case of `O=C(c1cccc(F)c1)N1CCCC[C@H](N2CCCC2)C1`, the “% Inhibition” value is on record as -9% and the Z score is 0.82.
In the same order, the values of `COCCn1c(C)cnc1CC1CCN(C(=O)C(C)C)CC1` are -16% and 2.3.
On to `CC(C)[C@H](Cc1ccc(F)cc1)NC(=O)Nc1ccnn1C`, for which the “% Inhibition” value is listed as 2% and the Z score is -0.48.
In the case of `CN(C)S(=O)(=O)Nc1cccc(N)c1`, the “% Inhibition” value is -11% and the Z score stood at 1.46.
As to `C[C@@]1(C(=O)NC2CCCCCC2)COCc2nnc(C3CCCC3)n21`, the “% Inhibition” value is listed as -3% and the Z score came to 0.45.
As for `O=C(Nc1cccc(F)c1)N1CC2C3CCC(C3)C21` (stereo not drawn), the “% Inhibition” value was -9% and the Z score stood at 1.61.
For `Cc1cc(C)c(OCCOCCN(C)C)c(Br)c1`, in that order: -9% and 1.2.
As to `Cc1ccc2oc(-c3noc(C(=O)NCc4cccc(Br)c4)n3)c(C)c2c1`, the “% Inhibition” value is recorded as 4% and the Z score is -0.46.
With `COc1ccc(-c2ccc(C(C)=O)cn2)c(OC)n1`, the “% Inhibition” value was -5% and the Z score turned out to be 0.76.
For the compound `Cc1cc(C(=O)NC2CCN(C(=O)[C@H](Cc3ccccc3)N(C)C)CC2)c(C)o1`, the “% Inhibition” value is given as -5% and the Z score is listed as 0.7.
As for `Cc1cc(-c2nc3ccccc3s2)ccc1NC(=O)Nc1ccccc1Br`, the “% Inhibition” value was -3% and the Z score stood at 0.51.
In the same order, the values of `COc1ccc(S(=O)(=O)N2C[C@@H]3C[C@H](C2)c2ccc(NC(=O)c4cnccn4)c(=O)n2C3)cc1` are -9% and 1.76.
As to `COc1cccc(-n2ccnc2C2CC2)c1Cl`, the “% Inhibition” value is -4% and the Z score turned out to be 0.62.
As to `COc1ccc(OCc2nc(C(=O)NCc3cccnc3N)co2)cc1`, the “% Inhibition” value was 16% and the Z score was -1.9.
On to `Cc1occc1C(=O)NCCn1ccnc1`, for which the “% Inhibition” value is reported as -6% and the Z score is recorded as 0.87.
As for `O=C(c1cc(-c2ccncc2)n(-c2ccccc2)n1)N1CCCCCC1`, the “% Inhibition” value is on record as 4% and the Z score is -0.73.
With `O=C(C[C@H](c1ccccc1F)c1cn(Cc2ccccc2)c2ccccc12)N1CCOCC1`, the “% Inhibition” value is given as -3% and the Z score was 0.48.
For `CCCS(=O)(=O)Nc1cc(N)c(F)cc1F`, in that order: -9% and 1.42.
In the case of `COc1ccc(Cl)cc1C(=O)N[C@H]1CCc2nn(C)c(=O)cc2C1`, the “% Inhibition” value was -18% and the Z score is on record as 3.11.
In the case of `C#CCN(C)C(=O)c1ccncc1CC`, the “% Inhibition” value is 0% and the Z score is listed as -0.01.
Consider `Cc1ccc(-c2ccc3nnc(C)n3n2)cc1S(=O)(=O)N1CCOCC1`, for which the “% Inhibition” value was -1% and the Z score is recorded as 0.18.
For `CCc1cc(CNC(=O)NCCNC(=O)C2CCCC2)on1`, the “% Inhibition” value is reported as -4% and the Z score worked out at 0.5.
On to `Cc1cc(N2CCC(n3c(=O)[nH]c4cccnc43)CC2)ncn1`, for which the “% Inhibition” value worked out at 22% and the Z score is recorded as -2.81.
In the case of `O=C(COc1ccccc1F)NC(CO)C(O)c1ccccn1` (stereo not drawn), the “% Inhibition” value is listed as -5% and the Z score amounted to 0.69.
Consider `OCc1cc(CN[C@H]2CCCNc3ccccc32)ccc1F`, for which the “% Inhibition” value is given as 4% and the Z score is listed as -0.52.
Turning to `CN(C[C@H]1CCCCN1C)C(=O)c1cccc(-c2cc(F)c(F)cc2O)c1`, the “% Inhibition” value is 2% and the Z score is on record as -0.29.
As for `Cc1nnnn1CCC(=O)N1CC[C@]23C(=O)N(CC(=O)N(C)CCCOc4cccc(c4)[C@H]12)c1ccccc13`, the “% Inhibition” value was -6% and the Z score was 1.09.
Regarding `COC(=O)c1ccnc(-c2cc[nH]n2)c1`, the “% Inhibition” value is recorded as 6% and the Z score is given as -1.1.
Regarding `CCCC1CCCCC1NC(=O)N(C)CC` (stereo not drawn), the “% Inhibition” value came out at 0% and the Z score is given as 0.05.
As for `CCc1ccc(CNC(=O)c2cccc(C(=O)NCc3ccc(CC)cc3)n2)cc1`, the “% Inhibition” value was -15% and the Z score is listed as 2.
As to `CC(C)N1C(=O)NC(C)(C2CCCN(CCc3ccccn3)C2)C1=O` (stereo not drawn), the “% Inhibition” value is reported as -4% and the Z score was 0.84.
As to `Cc1c(C)[n+]([O-])c([C@@H](c2cc(F)c(F)c(F)c2)C2C(=O)OC(C)(C)OC2=O)n1C`, the “% Inhibition” value is given as -8% and the Z score came out at 0.97.
On to `CC(=O)N[C@@H](c1nc(-c2ccc(C(F)F)nc2)no1)C(C)C`, for which the “% Inhibition” value is -3% and the Z score stood at 0.45.
With `Cc1ccncc1NC(=O)N1CCCCC[C@H]1c1noc(-c2cnn(C)c2)n1`, the “% Inhibition” value was -13% and the Z score turned out to be 1.46.
In the same order, the values of `Cc1cc(CN(C)C(=O)[C@H]2CC(=O)N(C(C)C)C2)no1` are 1% and -0.07.
`CC(=O)NCc1ccc(C(=O)NC[C@](C)(O)C2CCCCC2)s1`: the “% Inhibition” value is -16% and the Z score is recorded as 1.57.
For `COCc1ncsc1C(=O)N1C[C@H](C)Oc2c(F)cccc21`, in that order: 11% and -1.62.
For `COc1cccc([C@H](C(=O)O)N2CCC(c3nc4ccccc4n3C)CC2)c1`, the “% Inhibition” value is listed as -3% and the Z score came to 0.54.
For the compound `C[C@H]1CCC(=O)N1c1cccc(NC(=O)c2cc(C#N)c[nH]2)c1`, the “% Inhibition” value is on record as -13% and the Z score is listed as 2.01.
For `CN1C(=O)COc2cc(NC(=O)N[C@H]3COC[C@@H]3N3CCCC3)ccc21`, the “% Inhibition” value came out at 16% and the Z score is given as -2.02.
For `CC[C@@H](C(=O)O)N1CCC(OCCc2ccccc2)CC1`, the “% Inhibition” value is recorded as 0% and the Z score is listed as 0.06.

As a reminder, the % Inhibition is the relative decrease from the control value, in per cent.
